The supplement of paper PMC4967469
By IC50 is meant the dose at which the fit gives 50% viability; fits outside the tested doses are given as limits. AUC, from the same fit, is the share of area under the viability curve across the 256-fold dose range: 1 means no effect, lower means more sensitive. For some of these results: A top dose marked as inferred was calculated from the reported fits.

Columns and labels:
Experiment in all cases: Viability of human cancer cell lines after 72 h of drug (GDSC screen)
[1] = compound: CC(C)(C)c1nc(-c2cccc(NS(=O)(=O)c3c(F)cccc3F)c2F)c(-c2ccnc(N)n2)s1 [Dabrafenib]; conditions: top dose 10 µM
Protocol: (§1)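 Human cancer cell lines in 384-well plates, medium with 10% serum, drug for 72 h over a 256-fold dose range (nine 2-fold or five 4-fold steps up to the top dose). Adherent lines were fixed and stained with the nucleic acid dye Syto60, suspension lines read with resazurin; signal relative to control wells, capped at 0 and 100%. One two-parameter sigmoid per drug and line, fitted in a mixed model over all curves with the slope shared within a line.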

[2] = compound: CCc1c2c(nc3ccc(O)cc13)-c1cc3c(c(=O)n1C2)COC(=O)[C@]3(O)CC [SN-38]; conditions: top dose 0.05 µM; top dose inferred
Protocol: as §1

[3] = compound: CN(Cc1cnc2nc(N)nc(N)c2n1)c1ccc(C(=O)N[C@@H](CCC(=O)O)C(=O)O)cc1 [Methotrexate]; conditions: top dose 0.2 µM
Protocol: as §1

[4] = compound: CNC(=O)c1ccccc1Sc1ccc2c(/C=C/c3ccccn3)n[nH]c2c1 [Axitinib]; conditions: top dose 2 µM
Protocol: as §1

[5] = compound: O=C(CCCCCCC(=O)Nc1ccccc1)NO [Vorinostat]; conditions: top dose 10 µM
Protocol: as §1

Cell Line	AUC [1]	IC50 [1] [nM]	AUC [2]	IC50 [2] [nM]	AUC [3]	IC50 [3] [nM]	AUC [4]	IC50 [4] [nM]	AUC [5]	IC50 [5] [nM]
FU-OV-1 (ovary, adherent)	0.962	> 10000	0.879	> 50	0.957	> 200	0.973	> 2000	0.841	> 10000
MEL-JUSO (melanoma, adherent)	0.912	> 10000	0.666	9.62	0.969	> 200	0.93	> 2000	0.782	4710
NB17 (neuroblastoma, adherent)	0.982	> 10000	0.685	11.2	0.984	> 200	0.939	> 2000	0.648	1720
DEL (lymphoid neoplasm, suspension)	0.954	> 10000	0.477	2.74	0.665	32.1	0.988	> 2000	0.608	1160
BV-173 (chronic myeloid leukaemia, suspension)	0.53	747	0.342	1.21	0.45	9.31	0.512	134	0.309	197
BICR10 (head and neck, adherent)	0.956	> 10000	0.769	21.7	0.981	> 200	0.92	> 2000	0.686	2260
NCI-H1651 (lung adenocarcinoma, adherent)	0.944	> 10000	0.58	5.28	0.978	> 200	0.987	> 2000	0.763	3890
SUIT-2 (pancreas, adherent)	0.876	> 10000	0.638	7.66	0.788	92.4	0.978	> 2000	0.729	2910
D-542MG (glioma, adherent)	0.981	> 10000	0.909	> 50	0.984	> 200	0.95	> 2000	0.948	> 10000
SW626 (ovary, adherent)	0.971	> 10000	0.77	22.5	0.981	> 200	0.982	> 2000	0.673	2080
NCI-H1568 (lung adenocarcinoma, adherent)	0.939	> 10000	0.684	11.7	0.957	> 200	0.979	> 2000	0.836	9080
CP66-MEL (melanoma, adherent)	0.948	> 10000	0.861	> 50	0.986	> 200	0.937	> 2000	0.798	5550
COR-L23 (large cell lung carcinoma, adherent)	0.938	> 10000	0.613	6.33	0.783	81.7	0.963	> 2000	0.725	2670
SK-MEL-31 (melanoma, adherent)	0.955	> 10000	0.937	> 50	0.978	> 200	0.978	> 2000	0.829	8720
SW1710 (bladder, adherent)	0.866	9370	0.76	18.1	0.973	> 200	0.947	> 2000	0.833	6730
RO82-W-1 (thyroid, adherent)	0.921	> 10000	0.669	10.6	0.974	> 200	0.923	> 2000	0.849	> 10000
FU97 (stomach, adherent)	0.853	8200	0.831	32.8	0.98	> 200	0.841	1460	0.685	2090
OCI-AML5 (acute myeloid leukaemia, suspension)	0.887	9500	0.57	4.78	0.875	167	0.928	> 2000	0.562	906
HD-MY-Z (Hodgkin lymphoma, adherent)	0.788	4410	0.504	3.21	0.846	147	0.873	1930	0.48	550
NCI-H630 (large intestine, adherent)	0.953	> 10000	0.918	> 50	0.977	> 200	0.98	> 2000	0.812	5830
NKM-1 (acute myeloid leukaemia, suspension)	0.762	3680	0.382	1.46	0.691	43.7	0.809	1080	0.38	289
MDA-MB-415 (breast, adherent)	0.97	> 10000	0.842	> 50	0.98	> 200	0.937	> 2000	0.832	9690
NCI-H2444 (non-small cell lung carcinoma, adherent)	0.986	> 10000	0.957	> 50	0.988	> 200	0.983	> 2000	0.785	4890
H2595 (mesothelioma, adherent)	0.972	> 10000	0.873	> 50	0.979	> 200	0.898	> 2000	0.732	3770
EW-16 (Ewing sarcoma, adherent)	0.935	> 10000	0.425	1.92	0.895	> 200	0.905	> 2000	0.686	2130
